# From publication PMC12136788
# This is one part of the list.
# T1: UNK ZnF1-3 (human, UniProt Q9C0B0 31-174)
# T1 sequence: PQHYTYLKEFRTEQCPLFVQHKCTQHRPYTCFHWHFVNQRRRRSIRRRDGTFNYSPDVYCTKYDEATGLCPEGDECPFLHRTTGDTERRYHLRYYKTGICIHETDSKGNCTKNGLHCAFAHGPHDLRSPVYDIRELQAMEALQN
# B1: chr14:78183846:78183847:+_ENSG00000119705_ENST00000557342|hu_hu|hu_hu_hu_mus_False|8_58 (ssRNA)
# RNA: GGGAGUUCUACAGUCCGACGAUCUCUCAGAAAUCUUUCUUCAUCAGAUGUUUGAGCUCCGUGCAAAGCCUUUGCUCUUCUAGUGUGAACGUGGAUCUAUGGGAGGGAAAGCACUGUCAGAAAAGGUUGUAGUGCAUUUAAAGACAACAGAGGAUUGAGCAUCA
# B2: chr17:60770872:60770873:+_ENSG00000011028_ENST00000303375|hu_hu|hu_hu_hu_mus_True|8_38 (ssRNA)
# RNA: GGGAGUUCUACAGUCCGACGAUCUCUUUAAAAAAAAAAAAAAAAAGACAAACAAUAAUAGCACAUUUCGAGAAUCAAGAACUACAAUAGAGGGUCCAUGUCUUCGAUUUGUUCACAUCGUCCUGCAACGCUGUCGCGGGACUGCAACAGAGGAUUGAGCAUCA
# B3: chr14:76904430:76904431:+_ENSMUSG00000022010_ENSMUST00000022587|mus_mus|mus_mus_mus_hu_True|8_48 (ssRNA)
# RNA: GGGAGUUCUACAGUCCGACGAUCUGCAGCCAAAAACACCCUCGUGGAAAAAAAGAGGGAACACCAGCAGCCUUGUAUAAGCUAGAUAAAACCGCCUGGCUUUCCGCAGCCCAGGGAGAAACAGAAAUGGUGCUGGCUAAUUUACAACAGAGGAUUGAGCAUCA
# B4: chr6:155153589:155153590:+_ENSG00000213079_ENST00000417268|hu_hu|FALSE|FALSE (ssRNA)
# RNA: GGGAGUUCUACAGUCCGACGAUCAGUAACAUUGUCUACGCUUUGUCUUCCAGGAGCUAAAAAAGGUCUUUCUGGUUGACUAAAAAUAUCUCCUGGAGGAAAAGGUCCACGGGGUGGUGGAUGAAGAGCUGAAUCAAGUACCGACAACAGAGGAUUGAGCAUCA
# B5: chr7:135839593:135839594:+_ENSMUSG00000042105_ENSMUST00000151237|mus_mus|motif|central (ssRNA)
# RNA: GGGAGUUCUACAGUCCGACGAUCCUGAGAGUCAGUUAACCAGAGUAAGGCUCUAAAGGAUGCCAGAGACAUUGAUACCUGCGGGAAUAUGCCUACAGCUUUCUCACUCUGGGUUACAGAAGAGGUUCUUGGUGGUUAGUUACUCAACAGAGGAUUGAGCAUCA
# B6: 50087819_50087939_391_5pUTR_ENSG00000168282_ENST00000305386|human|control|control (ssRNA)
# RNA: GGGAGUUCUACAGUCCGACGAUCCUGCUUCUGCACGGAAGGGGCGGGCGGGCGGCGGCCGUCGCCUUGGCCUGUCACGGUCGGAACUGGCCCCCGCGGCUGCCCUCGCUAACUCAUCCCGGGCCCCGGGGGUCCUGGGGCCCGCAACAGAGGAUUGAGCAUCA
# B7: chr4:71639242:71639243:+_ENSG00000018189_ENST00000226328|hu_mus|FALSE|FALSE (ssRNA)
# RNA: GGGAGUUCUACAGUCCGACGAUCUCCAUCCCCUUCACUACCUUUACUACUGUUUCCAUCUUUGAGAUACAUCGAAAAAUCUAUAACUCCAACCUGAGAGUCCAGGUCUUCUCCUUUCAUGCAGAAAUUGGCAUCGAUGACAUUCAACAGAGGAUUGAGCAUCA
# B8: chr16:21666878:21666879:+_ENSG00000197006_ENST00000396014|hu_mus|motif|central (ssRNA)
# RNA: GGGAGUUCUACAGUCCGACGAUCUUUAAAAACACUCCCUUACACACUACAAAGAAAGAAUUAGUAUUUUGGCUUUUUAAAUUCCGGCAUGAUACUGAGAAUGACAGUCCCCAGAGGUCCCCCUCACAUCACUGGAUGCAUCUCCAACAGAGGAUUGAGCAUCA
# B9: chr9:42776432:42776433:-_ENSMUSG00000059495_ENSMUST00000165665|mus_mus|FALSE|FALSE (ssRNA)
# RNA: GGGAGUUCUACAGUCCGACGAUCGUUCAACUCAGUAGUGAUUCAGUUUCGAAAACCUCUUUCUUCUCUCCCAAAUCCCAACUAUCAAUAGAAAAGACAACGACAAGGGAAAUCCACCCAUUUUCAAGUGCCUGCCAUUUAGUGCAACAGAGGAUUGAGCAUCA
# B10: chr1:44156729:44156730:-_ENSMUSG00000026049_ENSMUST00000150911|mus_hu|FALSE|FALSE (ssRNA)
# RNA: GGGAGUUCUACAGUCCGACGAUCAAGGUAUUUUUAAUUUAACCUCUGUAUGACUCAUUUUCACUGUUGAAUAACAAACUUAAAGUGCAUUUACAUCUGAGAAGCAAAGGACAUCUCCCCGGGAAGGCAAAAGUGGCCGCGGGCCAACAGAGGAUUGAGCAUCA
# B11: 91004473_91005321_2523_CDS_ENSMUSG00000030091_ENSMUST00000032179|mouse|control|control (ssRNA)
# RNA: GGGAGUUCUACAGUCCGACGAUCCGAGACUGUCUGCAAACCAUGUAGUUUCUUUUGGCCAUUCCCAUCAUCCUGGGAUACCAGCUGCAUGGGCUGGUCAAGCUCAAUGCUGGCCAGCAAUGGCCGGGAGGACUCCCACUGGAUCAACAGAGGAUUGAGCAUCA
# B12: chr3:9412954:9412955:+_ENSG00000134077_ENST00000452837|hu_mus|hu_hu_hu_mus_False|48_108 (ssRNA)
# RNA: GGGAGUUCUACAGUCCGACGAUCGGUUGAUACAUCCUCUUUGAUGGCUGGAUUUUCAUAAUAGUCCAAGAUAUGUGAAUCUGAAGUAUGGCUAGUGUGCUUUUUCUUACCAUCUUUCUCAUCUGCUUUGUCUCCUUGUCCACACAACAGAGGAUUGAGCAUCA
# B13: chr8:3623242:3623243:+_ENSMUSG00000087687_ENSMUST00000156380|mus_mus|FALSE|FALSE (ssRNA)
# RNA: GGGAGUUCUACAGUCCGACGAUCUCUGCUGGGCAGCUUGAAGAAGUCUCUCUUCUUUCUGCUUCCGGAUCUUCUGCUUAAAUUCUUCUAGCUCCUGGCGCUGACCCUCCUUCUCUCUUGGCCACAGCUCCCUCUUACGCUGGACAACAGAGGAUUGAGCAUCA
# B14: 138450947_138451067_2129_CDS_ENSG00000189184_ENST00000507846|human|control|control (ssRNA)
# RNA: GGGAGUUCUACAGUCCGACGAUCUAUGGUAGGCACCAAUGUGAUGUCCCCUUUGUGAAUCUGCCGGGAUGGCCUUUUUGGGUGGUGCUGGUAAGUUGAUUCGGCCACCCUGCAGUUAUAGGAUCUAGUGUCUUUCUUCUCGCGCAACAGAGGAUUGAGCAUCA
# B15: chr4:107252891:107252892:+_ENSG00000164022_ENST00000394701|hu_mus|FALSE|FALSE (ssRNA)
# RNA: GGGAGUUCUACAGUCCGACGAUCAGGGUGCUUCUUGGCAGUAACAAUACAACCAAUUCGAAGAUCCAGACGCGAUGCGUCGAUAGGCUUGGAGUCAGUACUUGCUGCUGCCGACUGCUGCUUCUCCUUUUUCUCUCCUUUCUUCAACAGAGGAUUGAGCAUCA
# B16: chr12:42180722:42180723:-_ENSMUSG00000036295_ENSMUST00000043884|mus_hu|mus_mus_mus_hu_True|8_38 (ssRNA)
# RNA: GGGAGUUCUACAGUCCGACGAUCCUGUAGGAGAAGAAUCUGUGUGUUAGCUGGCAAUCUGGCUGGGAAAGUUAAAAGACCUAAAUCAUUACAAUCCACUGUCGAUGCUUCCAUAUAAAUGGAUCUGGGGGUAAACCAAGGCCUCAACAGAGGAUUGAGCAUCA
# B17: chr7:135612270:135612271:-_ENSG00000105887_ENST00000393085|hu_mus|hu_hu_hu_mus_False|28_28 (ssRNA)
# RNA: GGGAGUUCUACAGUCCGACGAUCGUUUUUUUCUGAGAUGUUAAAUAGUACUUCAGUGGAAAACAAAACUUAACCUUUUAUUAAUGCGUGUUGUACCAAAAGCAGACCAUGGUUUUACAUUUAUUCAAAAAUAUUAACAUUAAGCAACAGAGGAUUGAGCAUCA
# B18: chr19:16212804:16212805:+_ENSG00000167460_ENST00000300933|hu_mus|hu_hu_hu_mus_False|8_18 (ssRNA)
# RNA: GGGAGUUCUACAGUCCGACGAUCAACAAUUCUGGAGUGAAGGAAAGAUGUAACAUGGAACAGCAUUAAAGCUCAGUCAGAAGGCACAUGGGCAACAAUGAUCACCCCAGCAUUCUCCUACGUUGACUGCUUGAGAAAUCUGUUCAACAGAGGAUUGAGCAUCA
# B19: chr7:44244176:44244177:+_ENSG00000106636_ENST00000223369|hu_mus|hu_hu_hu_mus_False|48_88 (ssRNA)
# RNA: GGGAGUUCUACAGUCCGACGAUCACUGUCGCUCCGGACGUAGACAUGGCACAGAUACUCUUGUUCUUUGACAGAAGCUCUGCUGCCUUUCGAUGAGCGUUCCACAAUCAGUUGACUUGUAAAGGUCAUGAAUUCCUGCACACUCAACAGAGGAUUGAGCAUCA
# B20: chr17:65944371:65944372:-_ENSMUSG00000024091_ENSMUST00000024897|mus_mus|motif|central (ssRNA)
# RNA: GGGAGUUCUACAGUCCGACGAUCGGGCCGCACACAGUACCGGCGAGGUGCUGUAGUCUUCACUUUGAAACACACUUUUCGGUCCGAUGGAUUUUGCAAUUUAAGAUUUGUAGUGACUACAUCUGUGAAGGGGCCUUUGAAUUUCAACAGAGGAUUGAGCAUCA
# B21: 90049570_90049690_1667_3pUTR_ENSG00000197147_ENST00000439853|human|control|control (ssRNA)
# RNA: GGGAGUUCUACAGUCCGACGAUCAGGCGGAGGAUUUUUAAAUUCUCCUCUAGAAAGGCCAGUGCAGGAUGGUCUACGACCAGAGAUGAAUGGUACACACGAAGCUCCUUGAGGUUGACCAGCUGUGAGACUGCAGAGGGCAGCCAACAGAGGAUUGAGCAUCA
# B22: chr3:10015032:10015033:+_ENSMUSG00000027533_ENSMUST00000029046|mus_mus|mus_mus_mus_hu_True|68_98 (ssRNA)
# RNA: GGGAGUUCUACAGUCCGACGAUCGUUUUUACCAUCACACGUAAUGAUACAAUCUGGCUUGGCCAUUGCAGCCAUCUUUCGCAAAGCUAUUCCCACUCCUAGCUCCUUCAUGUAUUCAUCAAAGCCUUUGCUGUCCACCAGGCGCAACAGAGGAUUGAGCAUCA
# Molecular target: T1, UNK ZnF1-3
# Experiment: nsRBNS (natural sequence RNA bind-n-seq); RBNS binding buffer (assumed for nsRBNS): 25 mM Tris pH 7.5, 150 mM KCl, 3 mM MgCl2, 0.01% Triton X-100, 500 ug/ml BSA, 20 U/ml SUPERase-In, 4 C; UNK is unkempt and MSI1 is Musashi-1; names of the RNAs are library labels; protein concentration not given here; high values mean tight binding
row,Binder,binding signal
1,B1,1.27 enrichment R
2,B2,1.64 enrichment R
3,B3,2.19 enrichment R
4,B4,0.733 enrichment R
5,B5,0.959 enrichment R
6,B6,0.675 enrichment R
7,B7,1.03 enrichment R
8,B8,1.35 enrichment R
9,B9,1.65 enrichment R
10,B10,1.07 enrichment R
11,B11,0.481 enrichment R
12,B12,0.431 enrichment R
13,B13,0.536 enrichment R
14,B14,0.561 enrichment R
15,B15,0.583 enrichment R
16,B16,1.46 enrichment R
17,B17,1.4 enrichment R
18,B18,1.15 enrichment R
19,B19,0.594 enrichment R
20,B20,0.824 enrichment R
21,B21,1.15 enrichment R
22,B22,0.775 enrichment R
